Broadly, the % Inhibition is the change of the read-out against control, counted positive when it falls.

Out of some 150,000 compounds screened, about 540 (0.36%) showed an effect of 50% or more. Some of the results follow.

This test deals with Plasmodium falciparum. The test is described as follows: Primary screen in NF54 nanoGlo assay, in single point, at 2uM, 72h; a lower Z score goes with more inhibition. Type of test: functional, Erythrocyte. The settings on record: timepoint 72 hour.
For the molecule `O=C(NC[C@H]1CCCCN1CCO)c1cncc(F)c1`, the “% Inhibition” value is listed as -8% and the Z score is 1.03.
As to `CCc1nc(-c2cc(NC(=O)c3ccccc3)c(C)s2)no1`, the “% Inhibition” value is -15% and the Z score was 1.5.
Regarding `Cc1ccc(OCc2cc(C(=O)NCc3csc(N)n3)no2)cn1`, the “% Inhibition” value was -5% and the Z score stood at 0.72.
In the case of `COc1ccc2oc(-c3ccc(CNC(=O)c4ccc(C)cc4)cc3)nc2c1`, the “% Inhibition” value is listed as 38% and the Z score is -1.21.
On the same counts, the results for `COc1ccccc1CNC(=O)c1ccc(-c2c(-c3ccc(C)cc3)ncn2C2CCCC2)o1` are 14% and -2.43.
For `CN(C(=O)c1ncccc1Br)c1ccc(Cl)cn1`, in that order: -5% and 0.8.
On to `CN(C)C(=O)N1CC[C@@H]2CN(C(=O)CCn3nnc4ccccc43)C[C@@H]21`, for which the “% Inhibition” value is recorded as -29% and the Z score is reported as 2.67.
For the molecule `CN(CC1(N(C)C)CCC1)C(=O)NCc1ccc(C#N)cc1F`, the “% Inhibition” value stood at 10% and the Z score is reported as -1.29.
Turning to `O=S(=O)(c1ccc2c(c1)CCC2)N1CCC(CN2CCC3(CCCCO3)CC2)CC1`, the “% Inhibition” value is -18% and the Z score was 3.65.
Turning to `Cn1ncnc1N1C(=O)N[C@](C)(c2ccc(Cl)c(Cl)c2)C1=O`, the “% Inhibition” value is reported as -7% and the Z score was determined as 0.74.
For `CCc1noc(CC)c1CN[C@@H](C)CC(=O)Nc1cccc(C)c1C`, in that order: -5% and 0.81.
Consider `Cc1ccc2cc3c(nc2c1)N(C(=O)COc1ccccc1)CC3`, for which the “% Inhibition” value is -5% and the Z score stood at 0.87.
Consider `COc1ccc(-c2nnc(C(C)=O)n2Nc2ccc(S(N)(=O)=O)cc2)cc1`, for which the “% Inhibition” value is given as -19% and the Z score worked out at 2.22.
On to `Cc1ccc(NC2=NC(N)=NC3(CCCC3)N2)c(C)c1`, for which the “% Inhibition” value was -16% and the Z score is 1.99.
As for `COc1ccc(CCNc2cc([C@H]3CCOC3)nc(N)n2)cc1OC`, the “% Inhibition” value is -10% and the Z score amounted to 1.27.
Regarding `CCCn1cc(CNC(=O)N(C)Cc2cnn(C(C)C)c2)cn1`, the “% Inhibition” value was -15% and the Z score is 1.69.
On the same counts, the results for `COc1ccc(NC(=O)C2CC(=O)C2)c(Br)c1` are 11% and -1.42.
`CC1CC(CCNc2ccc(S(N)(=O)=O)cc2C(F)(F)F)CCO1` (configuration not stated): the “% Inhibition” value is -4% and the Z score stood at 0.59.
Take `CS(=O)(=O)N1CC(N2CC(F)(F)C[C@H]2C(=O)N2CCC(Cc3ccccc3)CC2)C1`: the “% Inhibition” value is listed as 4% and the Z score is reported as -0.68.
Regarding `NCC(=O)N1CCc2[nH]nc(C(c3ccccc3)c3ccccc3)c2C1`, the “% Inhibition” value is recorded as -15% and the Z score came out at 2.92.
On to `Cc1ccc(N2C[C@@H](c3nc(-c4cc5c(C)nn(-c6ccccc6)c5s4)no3)CC2=O)cc1`, for which the “% Inhibition” value is recorded as 29% and the Z score is on record as -3.35.
As to `Cc1nccc(O[C@H]2CCN(C(=O)Cn3cccn3)C2)n1`, the “% Inhibition” value is reported as -2% and the Z score is listed as 0.25.
For the molecule `CO[C@H]1COCC[C@@H]1NC(=O)Cc1ccc(F)c(F)c1`, the “% Inhibition” value is listed as -5% and the Z score came out at 0.42.
For `COC(=O)c1sc(NCCNS(C)(=O)=O)nc1C`, in that order: -1% and 0.13.
In the case of `O=C(Cn1cc(C(F)(F)F)ccc1=O)c1ccc(N2CCCC2=O)cc1`, the “% Inhibition” value is -12% and the Z score is listed as 1.67.
`C=CCNC(=NC1CC1)NCCc1cc(F)cc2c1OCOC2`: the “% Inhibition” value turned out to be 1% and the Z score is on record as -0.15.
As to `O=C(NC1CCN(Cc2ccccc2)CC1)c1nccnc1-c1nc2ccccc2s1`, the “% Inhibition” value is given as 13% and the Z score is reported as -1.57.
Regarding `Cc1cccc2nc(NCCn3ccnc3C(C)C)oc12`, the “% Inhibition” value is given as 5% and the Z score was -0.89.
On to `Cc1cc2nc(C(=O)N3CCc4c([nH]n(CCO)c4=O)C3)cc(C)n2n1`, for which the “% Inhibition” value is given as -9% and the Z score was found to be 1.34.
As for `Cc1c(CCNS(=O)(=O)c2cnc3c(cnn3C)c2)cnn1C`, the “% Inhibition” value was 7% and the Z score was -1.2.
Take `CCN(CCS(C)(=O)=O)C(=O)NCC1(C)CCCCCC1`: the “% Inhibition” value is -16% and the Z score is recorded as 1.38.
Turning to `Cc1cccnc1CN(Cc1ccccc1)C(=O)[C@@H]1CC(C(C)C)=NO1`, the “% Inhibition” value is listed as -15% and the Z score was 1.73.
Take `O=C(c1cc(Cl)cc(Cl)c1)N1CCC(c2nc(-c3ccc(Cl)cc3F)no2)CC1`: the “% Inhibition” value turned out to be 5% and the Z score was -0.66.
Consider `OCc1ccccc1CNCc1c[nH]nc1-c1cccnc1`, for which the “% Inhibition” value is given as -1% and the Z score was determined as 0.11.
With `CN1CCCC[C@@H]1CNc1nc(CCc2ccccc2)nc2c1cnn2C`, the “% Inhibition” value is given as 2% and the Z score is reported as -0.39.
With `N#Cc1cc(CN2CC[C@H](NC(=O)c3cccnc3)[C@@H](O)C2)c[nH]1`, the “% Inhibition” value came to 0% and the Z score is recorded as 0.03.
As for `O[C@H]1CN(CCN2CCN(c3ccccc3)CC2)C[C@@H]1N1CCOCC1`, the “% Inhibition” value was -3% and the Z score was determined as 0.29.
Take `Cc1nc[nH]c1CN1CCC(c2[nH]ncc2-c2cccc(F)c2)CC1`: the “% Inhibition” value was -8% and the Z score is on record as 1.17.
In the case of `O=C(CCOCC(F)(F)F)N1CCN(C2CCCC2O)CC1` (configuration not stated), the “% Inhibition” value worked out at 4% and the Z score is on record as -0.56.
As to `CN(C)c1ccc(NS(=O)(=O)c2cnn(C)c2)c(C(F)(F)F)c1`, the “% Inhibition” value amounted to 1% and the Z score was -0.2.
For the molecule `COc1ccc(CN(C(=O)C2OCCC2C)c2nccs2)cc1` (configuration not stated), the “% Inhibition” value stood at 6% and the Z score is listed as -0.73.
As to `O[C@H]1C[C@H]2CC[C@@H](C1)N2Cc1cccc2c1oc1ccccc12`, the “% Inhibition” value came out at 15% and the Z score is on record as -2.42.
Consider `CCCCS(=O)(=O)N1CCC(C(=O)NC(C)(C)C(=O)NCC2CCCC2)CC1`, for which the “% Inhibition” value is given as -10% and the Z score came to 1.55.
For `Cc1csc([C@H](C)NC(=O)c2ncc(F)cc2F)n1`, in that order: -5% and 0.86.
Take `NC(=O)N1CCC[C@H](C(=O)N2CCC(F)(F)CC2)C1`: the “% Inhibition” value is recorded as -1% and the Z score stood at 0.2.
With `O=C1CC[C@@H](C(=O)NCc2ccc(N3CCCC3=O)cc2)NC(=O)N1`, the “% Inhibition” value was -3% and the Z score amounted to 0.54.
In the case of `CC(C)(C)c1nnc(CNC(=O)[C@H]2CCC(=O)N2)s1`, the “% Inhibition” value came out at 0% and the Z score was 0.01.
For `C[C@H]1COc2ccc(-c3cccnc3)cc2CN1C(=O)C1CCOCC1`, in that order: -7% and 0.83.
As for `COc1ccccc1CC(=O)N[C@@H](C)c1n[nH]c(C)n1`, the “% Inhibition” value was -7% and the Z score stood at 0.88.
Turning to `O=C(N[C@H]1CCCc2c1cnn2-c1ccccc1F)c1ccccc1C(F)(F)F`, the “% Inhibition” value came to 1% and the Z score is -0.16.
On to `C[C@H](NCCN1N=C(c2ccccc2)CCC1=O)C(=O)NC1CCCC1`, for which the “% Inhibition” value came to 0% and the Z score is given as -0.06.
On to `O=C(CN1CCCCCC1)Nc1cccc(NCc2ccccn2)c1`, for which the “% Inhibition” value is reported as 5% and the Z score was -0.58.
As for `CCc1onc(C)c1[C@@H]1CCCN1C(=O)NCC(C)C`, the “% Inhibition” value is -14% and the Z score is recorded as 2.11.
Take `COc1ccc(F)cc1C(=O)N1C[C@H]2CCC[C@@H](C2)C1`: the “% Inhibition” value is -14% and the Z score was determined as 2.42.
`CN(C)C[C@H]1CN(Cc2nc3ccccc3o2)CCO1`: the “% Inhibition” value came to 1% and the Z score was -0.21.
Take `CCN1CCN(C(=O)c2ccc3c(c2)nc2n3CCN(Cc3ccccc3)C2=O)CC1`: the “% Inhibition” value was -7% and the Z score came to 0.86.
Regarding `Cc1nn(CN(C)Cc2cnn(C)c2)c(C)c1Br`, the “% Inhibition” value is recorded as -11% and the Z score amounted to 1.42.
As to `CCn1cnnc1CNC(=O)c1cccc(C)n1`, the “% Inhibition” value is on record as 12% and the Z score is reported as -1.62.
As to `CCc1nsc(N2CC(C)N(CC#N)C(C)C2)n1` (configuration not stated), the “% Inhibition” value is on record as -3% and the Z score is 0.45.
As to `CC1CN(Cc2ccccn2)CCC1NC(=O)Nc1ccccc1` (configuration not stated), the “% Inhibition” value is recorded as -1% and the Z score worked out at 0.15.
As for `CC(O)CCNC(=O)NC1CCC(C)C(C)C1` (configuration not stated), the “% Inhibition” value was -16% and the Z score was determined as 2.03.
On the same counts, the results for `N#Cc1c(N)nc2c(C(=O)Nc3ccccc3Cl)c(Nc3ccccc3)sc2c1-c1ccccc1` are 32% and -3.66.
Regarding `CC(=O)[C@H]1CCN(C(=O)c2c[nH]c3ccccc23)C1`, the “% Inhibition” value is -13% and the Z score is recorded as 2.41.
For the molecule `COc1cc2c(cc1O)NC(=O)C[C@H]2c1cccnc1OC`, the “% Inhibition” value is reported as -11% and the Z score worked out at 2.05.
With `O=C(O)CCCCNC(=O)OCc1ccccc1`, the “% Inhibition” value is -5% and the Z score was found to be 0.81.
On the same counts, the results for `CC(=O)c1ccccc1-c1ccc2ncnc(NCCO)c2c1` are -8% and 1.13.
With `COCCCNC(=O)CN1C(=O)c2ccccc2Oc2ncccc21`, the “% Inhibition” value was -18% and the Z score is 1.89.
On the same counts, the results for `Cc1cc(N2CCN(Cc3ccc(Cl)cc3)CC2)c2nncn2n1` are -2% and 0.2.
For the molecule `CCN(CC)S(=O)(=O)c1ccc(NC(=O)CON=C(N)c2cnn(C)c2)cc1`, the “% Inhibition” value is -5% and the Z score is 0.71.
As to `O=C(CCc1cn2ccccc2n1)N1Cc2cnn(CCO)c2C1`, the “% Inhibition” value was -15% and the Z score came to 2.67.
For `N#CCN1CCC[C@H]1c1nc2ccccc2s1`, the “% Inhibition” value is -12% and the Z score amounted to 1.88.
As to `COc1cc(-c2nccn2CCc2cccs2)cc2c1OCO2`, the “% Inhibition” value is reported as 9% and the Z score is given as -1.72.
On to `COc1ccc([C@@H]2CC(=O)N(Cc3nn(C)cc3Cl)C(=O)N2)cc1`, for which the “% Inhibition” value is listed as -4% and the Z score was determined as 0.77.
With `Cc1[nH]c(C(=O)O)c(C)c1C(=O)N1CCC[C@H]1c1ccc(CN(C)C)cc1`, the “% Inhibition” value came out at 0% and the Z score is on record as -0.02.
`NC(=O)c1nc(-c2ccccc2)n2c1CCN(C(=O)NCCc1ccccc1)CC2`: the “% Inhibition” value is reported as 0% and the Z score is -0.02.
For `CN(C[C@H]1COCCO1)C(=O)c1cncc(F)c1`, the “% Inhibition” value is listed as 5% and the Z score is -0.41.
Consider `Cc1oncc1C(=O)N1CCC(C(=O)NC2CC2c2cccc(F)c2)CC1` (configuration not stated), for which the “% Inhibition” value is 1% and the Z score is on record as -0.12.
`COC1CS(=O)(=O)CC1NC(=O)NC1CC(=O)N(Cc2ccccc2)C1C` (configuration not stated): the “% Inhibition” value is listed as -16% and the Z score is given as 2.87.
Regarding `Cc1cc(C(=O)Nc2sc3c(c2C#N)C(C)C(C)CC3)on1` (configuration not stated), the “% Inhibition” value is 2% and the Z score is listed as -0.25.
As for `COc1cc(-c2nccc(N)n2)c(Cl)cn1`, the “% Inhibition” value is given as -7% and the Z score is reported as 0.95.
On the same counts, the results for `C[C@]1(CNC(=O)CCc2ccc(F)cc2)CCC(=O)N1` are -14% and 1.89.
For `Brc1cncc(NCCc2nnc(-c3ccco3)[nH]2)c1`, the “% Inhibition” value is -7% and the Z score was found to be 0.96.
`C=C(C)CN(C)c1ccc(C(=O)N2CCC(CN3CCCC3=O)CC2)cn1`: the “% Inhibition” value is recorded as -8% and the Z score was 0.9.
Take `CCC(CC)n1c(=O)n(Cc2nc(COC)no2)c2cc(C(=O)O)cnc21`: the “% Inhibition” value stood at 8% and the Z score was -1.04.
On to `Cc1cccc(S(=O)(=O)N2CCC(c3nccn3CC(N)=O)CC2)c1`, for which the “% Inhibition” value is -10% and the Z score turned out to be 1.44.
On the same counts, the results for `Cc1csc([C@@H](C#N)C(=O)c2ccnc(N(C)C)c2)n1` are -2% and 0.24.

Source of the values: ChEMBL document CHEMBL4888484, “Replenishing the malaria drug discovery pipeline: Screening and hit evaluation of the MMV Hit Generation Library 1 (HGL1) against asexual blood stage Plasmodium falciparum ,using a nano luciferase reporter read-out” (2022).
